Assay results published in the RNAGym collection of RNA variant scans (doi:10.7554/elife.90254).
Read counts are not given, so values of variants with three or more changes are uncertain.

B1: LINE1-mini (parent)
chain: GGCAGAGCUCAACACAGCGUGGCAAAGUGGCUGUGGCUAGACUGCC

Variants of: B1
Assay: self-cleavage, relative activity (ratio to wild type); higher = more cleavage; in vitro, sequencing; the parent is a self-cleaving ribozyme

| Variant | self-cleavage |
| --- | --- |
| C3U C31A U43A | 0.02 |
| G7C C8U U28A C37U G40A U43G C46G | 0.06 |
| G22A U28C G29U C37A U43A | 0.02 |
| G5C A6C A11G A26U | 0.02 |
| G33A U38A C46G | 0.13 |
| A16U G29A U43A | 0.03 |
| A6G G30U C31A G35A | 0.01 |
| G7A A11U G19A A24C | 0.02 |
| A4G A16C G33U U34A | 0.05 |
| G2C C31G C46U | 0.04 |
| C3U C10G A24G | 0.04 |
| G2A G27C C31U | 0.13 |
| A24G A26U G29C G30U G33C U38G | 0.01 |
| C3A U9A A26C U32C | 0.44 |
| A6C G22U C37U | 0.02 |
| G7A G21U U34G C46G | 0.05 |
| C18G G21U G36C | 0.09 |
| C8U C10A A11G A25C G30U | 0.04 |
| A11C G35A G44U | 0.01 |
| C13A G21U G30A C31U G33U U43G | 1.5 |
| A4U U32G C42G | 0.1 |

| Variant | self-cleavage |
| --- | --- |
| A6C C10U C18U U20A G33A A39C | 0 |
| G2A G7U C18A | 0.23 |
| C8U G19A G36U | 0.06 |
| G19U C23U G27A G36U | 0.07 |
| C15G U28C G40U C45U | 0.02 |
| G19U U20A A24U A39G | 0.08 |
| G2C C3U A25C A39G | 0.03 |
| A4C C10A A24C G33U | 0.03 |
| A11U C37G A41C | 0.04 |
| C10A A12G G30A | 0.01 |
| A4U U9G U38C C45A | 0.01 |
| U38C A41U G44A | 0.45 |
| C3U G5U G21U C37U | 0.08 |
| C10U C18A A26U G33C U34G C37A U43A | 0 |
| C10U A26C G40U | 0.05 |
| G5A G19U U32G G44A | 0.03 |
| A16U C23A A24C A41G | 0.01 |
| G19U G29U C37U | 0.02 |
| C10G C15U U28G C31A U34G A41U | 0 |
| A4G C13G C42U | 0.05 |
| A12C G19A A24C | 0.02 |

| Variant | self-cleavage |
| --- | --- |
| G2U C10A U28C C42G | 0.01 |
| G1A C3U A6U U9C U38A A39C | 0.07 |
| G17A G22C C31A G40A | 0.01 |
| A25U G44U C46G | 0.14 |
| C8A A16U A24C | 0.13 |
| C15A A25C G40U C45G | 0.01 |
| G5U C8U A41C | 0.25 |
| G2U C13G C23G G27C | 0.01 |
| C3A G17C G33U G36U | 0.1 |
| A25U A26C U32G | 0.17 |
| G27U G40C C45A | 0.07 |
| A11G G22C A41G | 0 |
| G2U A11U A24G | 0.02 |
| C10A A25C G29U G33U | 0 |
| G5A A16U G40U | 0.05 |
| U9G C18U A26U | 0.07 |
| G2U G17U G21C A26G C42A | 0.08 |
| G17U C18U G33U G36U | 0.03 |
| G2A C3G A11U A25G G27U | 0.1 |
| U28G C31U C46U | 0.13 |
| C10G C13U A24G G27A G36A U43A | 0.01 |

| Variant | self-cleavage |
| --- | --- |
| G2C A4C A16G G21C G27A G36U C37G | 0.01 |
| A14C G19C A24C U34G | 0.4 |
| G1U G5U C46U | 0.05 |
| G1U G2A G33U U34G G40C U43C | 0.03 |
| G17U G27A G33U C46A | 0.01 |
| C10A A14C G17U G21U | 0.03 |
| A6G A41G G44A | 0.01 |
| G29A C31G G36A | 0.16 |
| C13G C15A G17A G29A G35C | 0.23 |
| G7C A12C G19A G21U C46U | 0.01 |
| A12G U34G A39G | 0.01 |
| C8U C18G G22C G29U | 0.08 |
| G5U A26U U32C | 0.03 |
| C3A G17A A25G G44C | 0.05 |
| G2C G36C G40U C42G | 0.01 |
| C8A C23U A26U C37A | 0 |
| C15A G29A G35A C45U | 0.02 |
| C18U G27C G29U | 0.41 |
| G17A A26G U32C U34G C42U | 0.01 |
| G2U A4G G27A U28G G30A G44A | 0.11 |
| G1A G17U G21C A39U | 0.1 |
